From ChEMBL document CHEMBL4888484, “Replenishing the malaria drug discovery pipeline: Screening and hit evaluation of the MMV Hit Generation Library 1 (HGL1) against asexual blood stage Plasmodium falciparum ,using a nano luciferase reporter read-out” (2022)
In all, about 150,000 compounds went through this assay and about 540 (0.36%) showed an effect of 50% or more. The list shows a part of the results.

Each compound was assayed on Plasmodium falciparum (assay: Primary screen in NF54 nanoGlo assay, in single point, at 2uM, 72h; a lower Z score goes with more inhibition). Settings: timepoint 72 hour.
Type: functional, Erythrocyte
With `CN1CCC(CNC(=O)C(C)(C)Oc2ccc3c(c2)CCC3)CC1` the “% Inhibition” value was -10% and the Z score was 1.69.
For `Cc1nc2ccccc2n1CCc1nnn[nH]1`, the “% Inhibition” value was -1% and the Z score was 0.2.
For `COc1ccccc1OC(=O)Cn1c(=O)sc2cccc(Cl)c21`, the “% Inhibition” value was 1% and the Z score was -0.15.
In the case of `CC(C)c1cc(=O)[nH]c(-n2nc(C3CC3)cc2NC(=O)COc2ccc3ccccc3c2)n1`, the “% Inhibition” value is reported as 54% and the Z score is reported as -12.73.
For `CN1CCCN(CC(=O)N[C@](C)(C#N)C2CC2)c2cc(F)ccc21`, the “% Inhibition” value was -11% and the Z score was 1.19.
In the case of `CC(=O)N[C@H]1CN(Cc2nc(C(F)(F)F)no2)C[C@@H]1c1ccc(C)cc1`, the “% Inhibition” value is reported as 19% and the Z score is reported as -2.51.
In the case of `Cc1ccc(-c2nc3n(CC(=O)NCc4ccccc4)c(C)c(Cc4ccccc4)c(=O)n3n2)cc1`, the “% Inhibition” value is reported as 7% and the Z score is reported as -0.86.
For `CC(C)C(=O)N(CCCN1CCCC1)[C@H]1CCCN(C(=O)C2CCC2)C1`, the “% Inhibition” value was 0% and the Z score was 0.05.
For `CCn1ccnc1[C@H]1CCCN(c2cnc3ccccc3n2)C1`, the “% Inhibition” value was -12% and the Z score was 2.04.
For `C=CCN(Cc1ccc(OC)nc1)Cc1ccco1`, the “% Inhibition” value was -10% and the Z score was 1.98.
For `COc1ccc(N2C(=O)[C@H](CC(=O)N3CCN(CCn4c(C)ccc4C)CC3)N=C2O)cc1`, the “% Inhibition” value was 32% and the Z score was -3.58.
For `O=C(CCc1nnc[nH]1)N(Cc1ccc2c(c1)CCO2)C1CCCC1`, the “% Inhibition” value was -4% and the Z score was 0.7.
In the case of `O=C(O)C[C@H]1CCCN(C(=O)CCCc2cc(F)ccc2F)C1`, the “% Inhibition” value is reported as 8% and the Z score is reported as -0.99.
In the case of `CC(=O)Nc1cccc(C(=O)N2CCN(c3cc(C)n4c(C)nnc4n3)CC2)c1`, the “% Inhibition” value is reported as -11% and the Z score is reported as 1.39.
With `CCC(CC)[C@H]1CCN(C(=O)c2cc(C(=O)O)co2)C1` the “% Inhibition” value was -10% and the Z score was 1.2.
`O=C(NC1CC1)[C@@H]1Cc2ccccc2O1` was tested, and the “% Inhibition” value was -13% and the Z score was 2.28.
For `CCCN1C[C@@H](NS(=O)(=O)c2c(C)cc(C)c3nonc23)CC1=O`, the “% Inhibition” value was -5% and the Z score was 0.74.
In the case of `CCN(Cc1ccc2[nH]ccc2c1)S(=O)(=O)CC1CCC1`, the “% Inhibition” value is reported as -4% and the Z score is reported as 0.38.
With `Cc1ccccc1N(C(=O)COC[C@H]1CCCO1)C(C)C` the “% Inhibition” value was -11% and the Z score was 1.52.
With `Cc1cc(C(F)(F)F)ccc1CN1CCC2(CC1)NC(=O)[C@H](C)O2` the “% Inhibition” value was 4% and the Z score was -0.59.
In the case of `Cc1cccc(S(=O)(=O)N2CCCC[C@H]2c2nnc(C3CCC3)o2)c1`, the “% Inhibition” value is reported as -15% and the Z score is reported as 2.1.
In the case of `O=C(NCC1CCOCC1)c1cccs1`, the “% Inhibition” value is reported as -3% and the Z score is reported as 0.6.
`CS(=O)(=O)NCCNC(=O)C1CC=CCC1c1nc2ccccc2s1` (stereo not given) was tested, and the “% Inhibition” value was 1% and the Z score was -0.22.
With `Cc1nn(C)c2nc(N(C)Cc3cc(C(C)C)no3)sc12` the “% Inhibition” value was 3% and the Z score was -0.61.
For `Cn1nc2c(c1S(=O)(=O)N1CC(N3CCOCC3)C1)CCCC2`, the “% Inhibition” value was 3% and the Z score was -0.62.
For `O=C(NCc1nnc2ccccn12)c1cc2c(Cl)cccc2s1`, the “% Inhibition” value was -18% and the Z score was 2.48.
With `CCCN(CC(=O)Nc1ccc(Cl)cc1)C(=O)Cn1cncn1` the “% Inhibition” value was -11% and the Z score was 1.54.
With `Cc1cnc(N[C@H]2CCC[C@@H]2N(C)C)nc1N(C)C` the “% Inhibition” value was -6% and the Z score was 0.74.
In the case of `COc1cccc(CC(=O)Nc2nnc([C@H]3CC(=O)N(c4ccc(F)cc4)C3)o2)c1`, the “% Inhibition” value is reported as 2% and the Z score is reported as -0.29.
With `O=S(=O)(Cc1cnoc1C1CC1)C1CCCC1` the “% Inhibition” value was 29% and the Z score was -3.26.
In the case of `CS(=O)(=O)N1CCC(n2c(=O)[nH]c3ccc(F)cc3c2=O)CC1`, the “% Inhibition” value is reported as 8% and the Z score is reported as -1.09.
With `O=C(CCc1cc2n(n1)CCN(Cc1ccc3ccccc3n1)C2)NCCO` the “% Inhibition” value was -16% and the Z score was 2.81.
With `COc1cc(F)ccc1N(C)Cc1nnc(-c2ccco2)o1` the “% Inhibition” value was -16% and the Z score was 3.06.
With `O=C(COCC(=O)Nc1ccncc1)Nc1ccncc1` the “% Inhibition” value was -8% and the Z score was 1.24.
`Cc1noc(C)c1CNC(=O)c1ccoc1` was tested, and the “% Inhibition” value was 1% and the Z score was -0.11.
In the case of `COc1ccc([C@H]2CC(=O)Nc3ccsc32)cc1OC(C)C`, the “% Inhibition” value is reported as 7% and the Z score is reported as -0.84.
In the case of `COc1ccc(CNc2ccc(N3CCOCC3)nc2)cc1OC`, the “% Inhibition” value is reported as -1% and the Z score is reported as 0.19.
In the case of `CC(=O)Nc1ccc(OCCO)c(OCCO)c1`, the “% Inhibition” value is reported as 5% and the Z score is reported as -0.71.
`COc1ccc(NC(=O)c2nccnc2-c2nc3ccccc3s2)cc1Cl` was tested, and the “% Inhibition” value was -12% and the Z score was 1.36.
For `CC(C)c1ccc(-c2nn3c(C4CCN(S(C)(=O)=O)CC4)nnc3s2)cc1`, the “% Inhibition” value was 33% and the Z score was -4.27.
`CCN1C(=O)C[C@H](C(=O)N(C)Cc2ccccn2)[C@H]1c1nccn1CC` was tested, and the “% Inhibition” value was -7% and the Z score was 0.97.
In the case of `Cc1nn(C)c(C)c1CC(=O)N1CCc2sccc2C1`, the “% Inhibition” value is reported as -38% and the Z score is reported as 4.51.
For `Cc1nn(-c2nc3ccccc3o2)c2c1[C@@H](c1cccc(Cl)c1Cl)CC(=O)N2`, the “% Inhibition” value was 11% and the Z score was -1.36.
With `Cc1c(F)cccc1-c1ccc(CNc2cccc(CN3CCC(O)CC3)c2)o1` the “% Inhibition” value was 8% and the Z score was -0.88.
In the case of `C#CC1CCN(C(=O)CN2C(=O)COc3ccccc32)CC1`, the “% Inhibition” value is reported as -13% and the Z score is reported as 2.02.
In the case of `Cc1nc(NC(=O)Cn2cnc(C#N)n2)sc1C`, the “% Inhibition” value is reported as -11% and the Z score is reported as 1.47.
In the case of `CCc1cc(C(=O)N2CCN(c3ccccc3Cl)CC2)nc2ccnn12`, the “% Inhibition” value is reported as -3% and the Z score is reported as 0.41.
In the case of `COCCN(C[C@H]1CCCO1)c1nc(C)nc2sccc12`, the “% Inhibition” value is reported as -12% and the Z score is reported as 1.87.
For `Cc1ncc(CN2CCC(NC(=O)c3ccc[nH]3)C(C)C2)s1` (stereo not given), the “% Inhibition” value was -5% and the Z score was 1.01.
`CN(Cc1ccoc1)C(=O)[C@@H]1CC[C@H](NC(=O)c2ncc(F)cc2F)C1` was tested, and the “% Inhibition” value was -1% and the Z score was 0.11.
`CN(C(=O)CN1CC[C@H]1c1ccc(F)cc1)C1CCCCC1` was tested, and the “% Inhibition” value was -9% and the Z score was 0.81.
For `Cc1ccc(OC2CCN(Cc3ccncc3)CC2)c(C(=O)N2CCC[C@H]2CO)c1`, the “% Inhibition” value was -10% and the Z score was 1.4.
In the case of `Brc1c(OCc2nc(-c3ccncc3)no2)ccc2ccccc12`, the “% Inhibition” value is reported as -6% and the Z score is reported as 0.87.
For `COC(=O)c1cc(Cl)cc(NC(=O)CCc2cscn2)c1`, the “% Inhibition” value was 2% and the Z score was -0.3.
For `C[C@H](NCC(=O)Nc1cc(S(=O)(=O)N2CCOCC2)ccc1N1CCOCC1)c1ccco1`, the “% Inhibition” value was -32% and the Z score was 3.81.
